The text below walks through data of paper PMC4336329 (PLoS ONE, 2015).

Among all 310,000 compounds or so, about 2,200 (0.71%) showed an effect of 50% or more. Effects have a minus sign here. The list shows a part of the results.

The target of this test is human ether-à-go-go-related gene (hERG) potassium channel (human, UniProt Q12809). Briefly: primary screen, population patch clamp on CHO cells stably expressing hERG.
Chain of human ether-à-go-go-related gene (hERG) potassium channel (Q12809 whole entry, looked up): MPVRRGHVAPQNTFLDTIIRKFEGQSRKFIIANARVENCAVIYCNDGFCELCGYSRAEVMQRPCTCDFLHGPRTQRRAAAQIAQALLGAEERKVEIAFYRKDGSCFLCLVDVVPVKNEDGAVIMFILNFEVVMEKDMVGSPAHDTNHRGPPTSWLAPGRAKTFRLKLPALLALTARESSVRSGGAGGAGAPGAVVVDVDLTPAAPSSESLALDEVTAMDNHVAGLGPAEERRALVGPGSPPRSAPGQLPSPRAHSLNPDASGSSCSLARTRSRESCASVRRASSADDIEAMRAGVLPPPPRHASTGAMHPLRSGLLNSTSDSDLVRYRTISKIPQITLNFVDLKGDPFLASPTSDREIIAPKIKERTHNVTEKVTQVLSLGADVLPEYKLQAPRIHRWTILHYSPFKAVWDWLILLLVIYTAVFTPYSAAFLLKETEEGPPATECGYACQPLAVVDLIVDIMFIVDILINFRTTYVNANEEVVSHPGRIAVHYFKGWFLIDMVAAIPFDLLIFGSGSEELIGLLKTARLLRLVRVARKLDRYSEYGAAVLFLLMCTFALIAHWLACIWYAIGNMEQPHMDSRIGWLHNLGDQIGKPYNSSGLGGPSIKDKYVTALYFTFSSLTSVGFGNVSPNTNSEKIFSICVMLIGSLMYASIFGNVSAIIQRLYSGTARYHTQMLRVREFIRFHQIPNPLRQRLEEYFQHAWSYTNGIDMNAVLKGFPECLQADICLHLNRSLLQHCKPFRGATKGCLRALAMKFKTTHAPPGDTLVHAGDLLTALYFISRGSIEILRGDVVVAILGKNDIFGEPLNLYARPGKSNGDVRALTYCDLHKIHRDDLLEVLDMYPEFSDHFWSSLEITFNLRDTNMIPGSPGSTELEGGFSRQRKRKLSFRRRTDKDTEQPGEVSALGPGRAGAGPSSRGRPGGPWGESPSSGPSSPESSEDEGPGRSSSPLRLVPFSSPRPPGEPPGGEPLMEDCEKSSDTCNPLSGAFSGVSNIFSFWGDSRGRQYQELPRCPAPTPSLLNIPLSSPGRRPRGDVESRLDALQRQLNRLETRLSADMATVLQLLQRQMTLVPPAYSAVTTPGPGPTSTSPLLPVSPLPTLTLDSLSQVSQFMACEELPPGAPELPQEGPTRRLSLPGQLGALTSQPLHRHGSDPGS
On to `Cc1[nH]c2ccccc2c1C(=O)C(C)Sc1nnc(C2CC2)o1` (centres unmarked), for which the “hERG current change (%, negative = inhibition) at 1uM” value is given as 12.8%.
Regarding `Cc1noc(C)c1CSCC(=O)N(C)CC(=O)Nc1ccc(F)cc1`, the “hERG current change (%, negative = inhibition) at 1uM” value is listed as 7.95%.
With `CCn1c(SCC(=O)NC2CCCC2)nnc1-c1ccccn1` the figure was 16.6%.
With `Cc1ccc(C)c(NC(=O)c2cc(C)nc3ccccc23)c1` the figure was 0.996%.
With `COc1ccc(N=C2S/C(=C\c3cc(C)n(C)c3C)C(=O)N2C)cc1` the figure was 5.22%; with `CC(C)(C)C(=O)CN1CCN(C2c3ccccc3-c3ccccc32)CC1`, -0.493%.
As for `Cc1ccc(C)c(CN2C(=O)NC3(CCCCCC3)C2=O)c1`, the “hERG current change (%, negative = inhibition) at 1uM” value was found to be 15.9%.
Regarding `Cc1ccc(S(=O)(=O)NCc2ccc(C(=O)NCCc3ccc(S(N)(=O)=O)cc3)cc2)cc1`, the “hERG current change (%, negative = inhibition) at 1uM” value stood at 6%.
With `COc1ccc(Cn2nc(C(=O)O)c3ccccc3c2=O)cc1F` the figure was 15.1%; with `O=C(C1CCCN(C2CC(=O)N(c3ccc(Cl)cc3)C2=O)C1)N1CCCC1` (centres unmarked), 12.5%.
With `CSCC[C@H](NC(=O)c1ccc2c(c1)OCO2)c1nnc2ccccn12` the figure was -3.7%.
With `Cc1cc(C)c2c(N)c(C(=O)Nc3ccc(C)c(C)c3)sc2n1` the figure was 8.28%; with `O=C1CC(N2CCC(n3c(=O)[nH]c4ccccc43)CC2)C(=O)N1Cc1ccccc1` (centres unmarked), 5.14%.
As for `O=c1cc(CSc2ccc(Cl)cc2)nc(N2CCOCC2)[nH]1`, the “hERG current change (%, negative = inhibition) at 1uM” value was 9.78%.
With `COC(=O)C(NC(C)=O)(Nc1nc2c(C)cc(C)cc2s1)C(F)(F)F` (centres unmarked) the figure was 21.5%; with `COc1ccc(OC)c(C2c3c(oc4ccccc4c3=O)C(=O)N2CCCN(C)C)c1` (centres unmarked), 16.1%.
With `O=C(COC(=O)CNS(=O)(=O)c1ccc(Br)cc1Cl)NCCc1ccccc1` the figure was 12%.
For the compound `O=C(NCCc1ccccc1F)[C@@H]1CSC2c3ccccc3C(=O)N21` (some centres unmarked), the “hERG current change (%, negative = inhibition) at 1uM” value is 5.23%.
As for `CCC(NC(=O)c1ccccc1NC(=O)c1ccccc1)C(=O)NNC(=O)c1cccnc1` (centres unmarked), the “hERG current change (%, negative = inhibition) at 1uM” value worked out at 9.6%.
With `N#Cc1cnc2sc3ccccc3n2c1=N` the figure was -11.7%; with `O=C(CCc1nc2ccccc2c(=O)[nH]1)NCc1ccco1`, -15.5%; with `CN(C)/C=C1\C(=O)N(C)N=C1C(F)(F)F`, 1.99%.
With `CC(C)NC(=O)c1ccc(Cl)cc1Cl` the figure was 14.1%.
With `COCCc1nn2c(=O)cc(COC(=O)c3cc(OC)c(OC)c(OC)c3)nc2s1` the figure was -3.3%; with `O=[N+]([O-])c1ccc2n[nH]nc2c1`, 15%; with `Cc1nn(C)c(C)c1/C=N/NC(=O)c1csc2ccccc12`, 1.92%.
With `CC(NS(=O)(=O)c1ccc(Cl)cc1)C(=O)OCC(=O)c1ccc[nH]1` (centres unmarked), the “hERG current change (%, negative = inhibition) at 1uM” value was found to be 9.11%.
With `Cc1ccc(C)c(OCC(=O)Nc2ccc(S(=O)(=O)Nc3onc(C)c3C)cc2)c1` the figure was 11.2%; with `COCCn1c(SCC(=O)N2CC(C)OC(C)C2)nc2c([nH]c3ccccc32)c1=O` (centres unmarked), 2.51%; with `O=C(CN1CCc2ccccc21)NCc1ccc2c(c1)OCO2`, 15.2%.
`O=C(CN1C(=O)c2ccccc2S1(=O)=O)NCc1ccccn1`: the “hERG current change (%, negative = inhibition) at 1uM” value is 11.1%.
In the case of `O=C(NNC(=O)C1CC(c2cccs2)=NO1)NC1CCCCC1` (centres unmarked), the “hERG current change (%, negative = inhibition) at 1uM” value is reported as 14.7%.
With `COc1ccc(-c2csc(N(CCc3ccccc3)C(=O)COc3ccccc3)n2)cc1` the figure was 13.7%; with `C=CCNC(=O)Nc1ccc2nc(C)sc2c1`, 11.4%.
For the compound `Cc1cccc(NC(=O)c2ccc3c(c2)C(=O)N(Cc2cccnc2)C3=O)c1C`, the “hERG current change (%, negative = inhibition) at 1uM” value is listed as 4.06%.
With `Cn1nnnc1SCC(=O)N1CCCCC1` the figure was 3.59%; with `COC(C(=O)NNS(=O)(=O)c1ccc([N+](=O)[O-])cc1)c1ccccc1` (centres unmarked), 12.5%.
In the case of `O=C(CCn1c(=O)[nH]c2ccccc2c1=O)N1CC=C(c2ccccc2)CC1`, the “hERG current change (%, negative = inhibition) at 1uM” value is given as 5.58%.
With `O=C(Nc1ccc(F)cc1)C1COc2ccccc2O1` (centres unmarked) the figure was 16.5%; with `COc1ccc(/C=C/C(=O)NC(=S)Nc2ccc(S(=O)(=O)Nc3nccnc3OC)cc2)cc1`, 3.71%; with `O=C(NCc1ccccn1)c1ccc(Cl)c(S(=O)(=O)Nc2ccccc2C(=O)NCc2ccccn2)c1`, 11.3%.
With `Cc1nc(Cl)cc(N/N=C/c2ccccc2)n1` the figure was 14.2%.
With `O=C(c1cc([N+](=O)[O-])ccc1N1CCOCC1)N1CCCCC1` the figure was 11.3%.
For `CCCCCc1cc(O)c2c(C)cc(=O)oc2c1`, the “hERG current change (%, negative = inhibition) at 1uM” value was found to be 9%.
